From PubChem BioAssay AID1345082 (National Center for Advancing Translational Sciences (NCATS), 2018)
Among all 94,000 compounds or so, about 4,000 (4.3%) were called active. The shares of active, inactive and inconclusive entries below differ from those in the screen. The call rests on the fitted dose curve; in most records, active means well fitted inhibition curve with a large enough effect; inconclusive means small, poorly fitted or top-dose-only effect; inactive means no such curve, though single readings can be large or run the other way. A potency beside an inconclusive call is a rough fit, not a confirmed value.

assay: Cytotoxic Profiling in NIH 3T3 Cell Line of Diverse Libraries Using Quantitative High-Throughput Screening; settings: NIH 3T3 viability, CellTiter-Glo ATP luminescence, 48-72 h; activity change, negative = cytotoxicity: at 96.7 µM (top of the series) unless noted; series mostly up to 96.7 µM; further: nearly all actives have a fitted effect of over 55% in size
Method in brief: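 Cells were seeded at 400 per well, treated with pin-transferred compound, and kept 48 or 72 hr at 37 °C before CellTiter-Glo addition and luminescence imaging of cellular ATP.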
On the % scale 0 is the no-effect control and ±100 the full control effect; potency means the concentration at half of the fitted maximal effect; tags describe the fitted curve by direction and shape.

Compound	activity change, negative = cytotoxicity	Potency	outcome
CCNC(=O)[C@@H]1CCCN1[C@@H](C(=O)NC)c1ccc(OC)cc1	inactive: -1.28% [at 138 µM]	–	–
CCOc1ccc(CN2CC[C@@](C)(O)[C@H](N3CCCC3)C2)cc1	–	inconclusive: 70.8 µM [inhibitor, single point]	–
COc1ccc(CN2CC(O)CN(C(=O)c3cccc(C(F)(F)F)c3)CC2=O)cc1 (stereo not given)	inactive: -25%	–	–
Cc1ccc(C(=O)N2CCN(c3cc(-c4cccs4)[nH]n3)CC2)cc1	–	active: 12.6 µM	–
COc1ccc(NC(=O)c2cc3n(n2)CC(c2ccc4c(c2)OCO4)OC3)c(OC)c1 (stereo not given)	–	inconclusive: 44.7 µM [inhibitor, partial curve, poor fit]	–
O=C(NCCc1noc(-c2ccccc2)n1)C1NCCc2[nH]cnc21 (stereo not given)	inactive: -17.1%	–	–
COC[C@@H]1[C@H](C(=O)NCCc2c[nH]c3ccc(OC)cc23)CCC(=O)N1C	–	–	inactive
O=C(Nc1cccc(C2OC(=O)N(Cc3ccccc3)C2C(=O)Nc2ccccc2)c1)c1ccco1 (stereo not given)	–	inconclusive: 50.1 µM [inhibitor, partial curve, poor fit]	–
CCc1noc(CC2CCOC3(CCN(S(=O)(=O)c4c(C)cc(C)cc4C)CC3)C2)n1 (stereo not given)	–	inconclusive: 44.7 µM [inhibitor, partial curve, poor fit]	–
O=C(O)c1ccc(CC2CCN(C(=O)c3ccccc3Cl)C2)cc1 (stereo not given)	inactive: -2.52%	–	–
O=C(NCC1CC1)c1ccc2nc(-c3ccccn3)oc2c1	–	inconclusive: 100 µM [inhibitor, partial curve]	–
CC(C)[C@H]1CN(CCC(=O)O)C[C@@H]1NC(=O)CCC1CCCC1	–	–	inactive
Cc1nc2n(c1C(=O)Nc1cccc(Cl)c1C)CCC(Nc1ccc(F)cc1)C2 (stereo not given)	–	inconclusive: 56.2 µM [inhibitor, partial curve, poor fit]	–
O=C(c1cc2sccc2[nH]1)N1CCCn2nc(C(O)CO)cc2C1 (stereo not given)	inactive: -1.53%	–	–
CN(Cc1ccc(OC(F)(F)F)cc1)C(=O)C1(c2ccc(Cl)cc2)CCOCC1	–	inconclusive: 50.1 µM [inhibitor, partial curve, poor fit]	–
O=C(C1COc2ccccc2O1)N1CCc2onc(-c3cccc(F)c3)c2C1 (stereo not given)	–	inconclusive: 12.6 µM [inhibitor, full curve, poor fit]	–
COc1ccc(NC(=O)NC[C@H]2COCc3nc4ccccc4n32)cc1	–	inconclusive: 112 µM [inhibitor, single point]	–
CCCN1CCc2[nH]cnc2C12CCN(Cc1ccc(C3CCCCO3)o1)CC2 (stereo not given)	inactive: -12.3%	–	–
COc1ccc(Cn2c(C3CCN(C(=O)c4cccs4)CC3)n[nH]c2=O)cc1	inactive: -8.58%	–	–
COCC(=O)NC1CCC12CCN(C(=O)CC(C)C)CC2 (stereo not given)	inactive: -11.6%	–	–
